According to PubChem BioAssay AID1508649 (National Center for Advancing Translational Sciences (NCATS), 2021):
Out of some 43,000 compounds screened, about 830 (1.9%) were called active. Inconclusive means that the source gave no clear call. Such entries were picked first, then a sample of the others. Rule for the calls: active = clear falling dose curves in both reporters; inconclusive = both reporters move, but less clearly or upward; inactive = either reporter flat; the % is the NLuc reporter signal. Potencies of inconclusive entries are left out as doubtful fits.

Experiment: Cell-based coincidence reporter assay to measure PMP22 gene transcription in S16 Pmp22-F2sN cells - Primary screen
Conditions: S16 Pmp22-F2sN Schwann cells (luciferase reporters placed in the Pmp22 gene), FLuc/NLuc coincidence luminescence, 24 h; measured here: NLuc reporter readout, at 57.5 µM (top of the series); activity change, negative = inhibition: at the top concentration
Outline: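 Luminescent read-out of sequential FLuc and NLuc signals from a reporter embedded in the Pmp22 3' UTR of S16 Schwann cells, taken after 24 h compound exposure at 37C; compounds reducing both signals score as inhibitors of expression.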
% is set by controls: 0 for no effect and ±100 for the full control effect; potency is the fitted concentration of half-maximal effect; tags give direction and shape of the fitted curve.

Compound | Potency | activity change, negative = inhibition
Cc1cccc(OCc2ccc(-c3nc(C#N)c(NCCN(C)C)o3)o2)c1 | inconclusive [phenotype inactive, single point] | 
COc1cccc(NC(=O)CN2C=NS(=O)(=O)c3ccccc32)c1 | inconclusive [phenotype inactive, single point] | 
O=C(CNS(=O)(=O)c1ccc(Br)s1)N1CCN(c2ccc(F)cc2)CC1 | inconclusive [phenotype inactive, single point] | 
O=C1CC(c2ccccc2)Cc2[nH]c(=O)c(-c3nc(-c4ccc(Cl)c(Cl)c4)cs3)cc21 (configuration not stated) |  | inactive: -7.49%
CCOc1cccc(-c2nc3ccccc3c(=O)o2)c1 |  | inactive: -37%
O=C(CCS(=O)(=O)c1ccccc1)N(Cc1cccnc1)c1nc2c(F)cccc2s1 | active: 10.6 µM | 
Cc1ccc(-c2nc(CS(=O)(=O)CC(=O)NC(C)CCc3ccccc3)c(C)o2)cc1 (configuration not stated) | inconclusive [phenotype inactive, single point] | 
CCOc1ccc2nc(N3CCCC(C(=O)NCCc4ccc(OC)cc4OC)C3)sc2c1 (configuration not stated) | inconclusive [phenotype inactive, single point] | 
COc1ccc(N2CCN(CCCNC(=O)c3nnc(Cc4ccccc4Cl)o3)CC2)cc1 | inconclusive [phenotype inactive, single point] | 
CCS(=O)(=O)N1CC(=O)N(c2cc(C)cc(C)c2)C(C)(C(=O)NC2CCCCC2)C1 (configuration not stated) |  | inactive: -1.96%
CC(C)Oc1ccc(CNC(=O)CN2C(=O)c3cccnc3Oc3ccc(Cl)cc32)cc1 | inconclusive [phenotype inactive, single point] | 
COC(=O)c1ccccc1NC(=O)CSc1n[nH]c(C)n1 |  | inactive: -1.58%
COc1ccc(-n2c(SC)nc3sc4c(c3c2=O)CCN(C(C)=O)C4)cc1 | inconclusive [phenotype inactive, partial curve, poor fit] | 
Cc1ccc(C)c(NC(=O)C(Cc2ccccc2)N2Cc3ccccc3C2=O)c1 (configuration not stated) | inconclusive [phenotype inactive, single point] | 
Cc1ccc(CCNc2ncnc3onc(C)c23)cc1 | inconclusive [phenotype inactive, full curve] | 
COc1ccccc1CNC(=O)c1ccc(CN2CC(=O)N3CCCCC3C2=O)cc1 (configuration not stated) | inconclusive [phenotype inactive, single point] | 
CC1=Nc2cc(C(=O)NC3CCCC3)ccc2Sc2ccc(Br)cc21 | inconclusive [phenotype inactive, full curve] | 
CCN(CC)C(=O)C1CCCN(c2ncnc3onc(C)c23)C1 (configuration not stated) | inconclusive [phenotype inactive, partial curve, poor fit] | 
Cc1ccc(NC(=O)NCCc2c(C)nn(C)c2C)c(Cl)c1 | inconclusive [phenotype inactive, single point] | 

Compound | Potency | activity change, negative = inhibition
Cc1ccc(Cl)cc1NC(=O)c1oc2ccc(S(=O)(=O)N3CCC4(CC3)OCCO4)cc2c1C | active: 7.51 µM | 
CCc1ccc(NC(=O)CSC2=Nc3ccccc3C3=NC(CCC(=O)NCc4cccs4)C(=O)N23)cc1 (configuration not stated) | inconclusive [phenotype inactive, single point] | 
COc1ccc(CCNC(=O)c2ccc(CS(=O)(=O)c3ccc(C)cc3)o2)cc1OC | inconclusive [phenotype inactive, single point] | 
COc1ccc(-n2c(-c3ccc(Cl)cc3)cc3c2CC(C)(C)CC3=O)c(OC)c1 | inconclusive [phenotype inactive, single point] | 
COC(=O)c1ccc(NS(=O)(=O)c2ccc3[nH]c4c(c3c2)CCCCC4)cc1 | inconclusive [phenotype inactive, single point] | 
COCCCNC(=O)c1c(C)nn(-c2ccc(F)cc2)c1-n1cccc1 |  | inactive: 3.52%
COc1cccc(-c2nc(S(=O)(=O)c3ccccc3)c(NCc3ccccc3)o2)c1 | inconclusive [phenotype inactive, single point] | 
Cc1ccc(Cn2c(C)c3cnn(CC(=O)N4CCN(c5cc(C)ccc5C)CC4)c(=O)c3c2C)cc1 | active: 11.9 µM | 
COc1ccc(NC(=O)Cn2c(=O)n(Cc3ccccc3Cl)c(=O)c3cc(OC)c(OC)cc32)cc1 | inconclusive [phenotype inactive, single point] | 
Cc1ccc(C(=O)CC2(O)C(=O)N(CCc3ccccc3)c3ccc(Br)cc32)cc1 (configuration not stated) | inconclusive [phenotype inactive, single point] | 
CC(C(=O)NCc1ccccc1)n1ccc2cc(S(=O)(=O)N3CCCC3)ccc21 (configuration not stated) | inconclusive [phenotype inactive, single point] | 
Cc1cc(C)c(-c2n[nH]c3c2C(c2ccccc2F)N(CCO)C3=O)c(O)c1 (configuration not stated) | inconclusive [phenotype inactive, single point] | 
CCCn1c(=N)c(C(=O)NC(C)c2ccccc2)cc2c(=O)n3ccccc3nc21 (configuration not stated) | active: 14.1 µM | 
CCOc1cc2[nH]c(=O)n(CCC(=O)N3CCN(c4ccccc4)CC3)c(=O)c2cc1OCC | inconclusive [phenotype inactive, single point] | 
Cc1ccc(-n2c(=O)c3c4c(sc3n(CC(=O)C(C)(C)C)c2=O)CCCCC4)cc1C | inconclusive [phenotype inactive, partial curve] | 
COc1cccc(C(=O)NC2=NC(c3ccccc3F)CC(=O)N2)c1 (configuration not stated) | inconclusive [phenotype inactive, single point] | 
Cc1nc2cccnc2n1-c1cccc(C(=O)NCc2cccc(Cl)c2)c1 | inconclusive [phenotype inactive, single point] | 
CCOc1ccc(-c2cc3nc(C4CCN(C(=O)OC(C)(C)C)CC4)c(C(=O)Nc4cccc(C(F)(F)F)c4)cn3n2)cc1 |  | inactive: -1.92%
